Results: PubChem BioAssay AID1963576 (National Center for Advancing Translational Sciences (NCATS), 2024)
The whole screen tested about 46,000 compounds, of which about 60 (0.1%) were called active. Roughly 3% stayed inconclusive and do not appear here. Calls follow the shape of the dose curve; as a rule, active = well fitted inhibition curve with a large enough effect; inconclusive = small, poorly fitted or top-dose-only effect; inactive = no such curve, though single readings can be large or run the other way. The list shows a part of the results.

Test: Primary qHTS assay for Inhibitors of ovarian cancer metastasis using an organotypic tumor microenvironment (TME) model. Also: nearly all actives have a fitted effect of over 65% in size.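 As to activity change, negative = inhibition: plate controls were DMSO wells for no effect and tomatine positive control wells for full effect.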
Conditions: SKOV3ip1-GFP adhesion/invasion on 3D omental model, fluorescence; series mostly up to 45.8 µM; activity change, negative = inhibition: at the top concentration
Outline: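 A 3D layer of primary human omental fibroblasts, mesothelial cells, fibronectin and collagen I, grown 48 hr, received SKOV3ip1-GFP cells in serum-free medium plus compounds at 0.36-46 umol/L. After 2 hr RT and 16 hr 37 C, fixed adherent GFP cells were counted; normalized to DMSO and tomatine.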

outcome, inactive:
CN1C(=O)C2(SCC(=O)N2c2ccc(F)cc2)c2ccccc21 (configuration not stated)
COc1cc(OC)cc(C(=O)Nc2ccc3oc(-c4cccc5c(Br)cccc45)nc3c2)c1
COc1ccc(-n2c(=O)c3c4c(sc3n3c(SCCC(C)C)nnc23)COC(C(C)C)C4)cc1 (configuration not stated)
COc1ccc(N2CCN(C(=O)c3cc(S(=O)(=O)N4CCC(C)CC4)cn3C)CC2)cc1
Cc1cccc(NC(=O)CCNS(=O)(=O)c2cccc3nsnc23)c1C
CCOc1ccccc1N(CC)C(=O)c1noc2c1COc1ccc(C)cc1-2
O=C(c1ccc(F)cc1)n1nc(-c2ccccc2)nc1NCc1ccco1
CCn1cc(C(=O)NCCc2ccc(Cl)cc2)c(=O)c2cc(S(=O)(=O)N3CCC(C)CC3)ccc21
COc1ccc(-n2ccnc(NCc3ccc(C)cc3)c2=O)cc1OC
O=C(c1ccccc1)N(Cc1ccco1)Cc1cccs1
Cc1cccc(C(=O)Nc2ccc(C(=O)OCc3cc(=O)n4nc(CC(C)C)sc4n3)cc2)c1
CCn1c(C)c(C)c2cc(C(=O)NCc3cccc(C)c3)ccc21
COc1ccc(OCC(=O)N2CCN(C(=O)c3cccc(OC)c3)CC2)cc1
CCc1ccccc1NC(=O)CCS(=O)(=O)c1cccc2nonc12
COc1cccc(CNC(=O)CCc2c(C)c3cc4c(C)coc4c(C)c3oc2=O)c1
CCOC(=O)Cn1c(=O)n(C2CCCCC2)c2nc(-c3cccc(OC)c3)nc(C(N)=O)c21
Cc1cccc(C(=O)NCC(=O)OCc2cc(=O)n3nc(C4CC4)sc3n2)c1
COc1ccccc1N1CCN(C(=O)c2cc3ccc4ccc(C)[nH]c4c3n2)CC1
Cc1ccc(CNC(=O)Cn2c(=O)n(-c3cccc(Cl)c3)c(=O)c3sc4ccccc4c32)cc1
Cc1ccc(Cl)cc1NS(=O)(=O)c1cc2c3c(c1)CC(=O)N3CCC2
Cc1c2cnn(-c3ccccc3)c(=O)c2c(C)n1CC(=O)NCc1ccccc1
COc1cc2c(c(OC)c1)C(c1cc(OC)c(OC)c(OC)c1)CC(=O)N2 (configuration not stated)
O=C(c1ccc(CS(=O)c2ccccc2Cl)o1)N1CCN(c2cccc(Cl)c2)CC1 (configuration not stated)
CC(CNC(=O)CCCn1c(=O)c2cccn2c2cccnc21)c1ccccc1 (configuration not stated)
CCOc1cccc2sc(N(CCN(CC)CC)C(=O)c3ccco3)nc12
Cc1ccc2c(c1)c(=O)c1ccccc1n2CCCC(=O)Nc1c(F)cccc1F
CCC(=O)N1CCc2cc(S(=O)(=O)CCC(=O)NCc3cccc(OC)c3)ccc21
Cc1cc(Br)ccc1NC(=O)C1CCN(S(=O)(=O)c2ccc(Br)s2)CC1
CCOc1ccc(NC(=O)CCS(=O)(=O)c2ccc(Br)cc2)cc1
COc1ccc(C(=O)Oc2ccc(C(c3c(C)[nH][nH]c3=O)c3c(C)[nH][nH]c3=O)cc2OC)cc1
CCCN1C(C(=O)c2ccccc2)=C(OC(=O)c2ccc(C)cc2)c2ccccc2S1(=O)=O
Cc1cc(SCC(=O)NCc2ccc(F)cc2)nc(=O)[nH]1
COc1cc(NC(=O)c2ncn(-c3ccccc3)n2)cc(OC)c1
CCOc1ccccc1-n1nnc(S(=O)(=O)c2ccc(C)cc2)c1N

Activity change, negative = inhibition, inactive:
CCOc1ccc(OCC)c(NS(=O)(=O)c2cc(-c3onc(C)c3C)ccc2OC)c1 -2.21%
COc1ccc(Cl)cc1NC(=O)NCC1CCN(Cc2ccccc2F)CC1 10.6%
CC(=O)N1CCc2cc(CNS(=O)(=O)c3ccc(Cl)s3)ccc21 -13.1%
CCN1CCN(CCCNC(=O)c2ccc3nc(Cc4ccccc4)oc3c2)CC1 11.8%
COc1ccc(N(CC(=O)N2CCN(c3ccccc3F)CC2)S(=O)(=O)c2c(C)n[nH]c2C)cc1 4.35%
O=C(NC1CCCCC1)c1ccc2c(c1)N(Cc1ccc(Cl)cc1)C(=O)c1ccccc1S2=O (configuration not stated) 11.3%
Cc1cccc(N2CCN(c3nc4ccc(C)cc4n4cnnc34)CC2C)c1 (configuration not stated) -36%
O=C(NCC(c1ccc2c(c1)OCO2)N1CCOCC1)c1c(F)cccc1F (configuration not stated) -4.34%
CCN(C(=O)C1CCN(c2ncnc3c2nc2n3CCCCC2)CC1)c1cccc(Cl)c1 0.511%
COc1ccc(NC(=O)/C=C\C(=O)N(c2ccc(C(C)C)cc2)C(C(=O)NCc2ccco2)c2ccc(F)cc2)cc1 (configuration not stated) -2.59%
Cc1nc(N)ncc1-c1nc(N2CCOCC2)c2sc(C(C)(C)O)cc2n1 -28%
CC1(C)CCC[C@@]2(C)[C@@H]1CC[C@@]1(C)OC(=O)C[C@H]21 -7.74%
Cc1ccc(C)c(Cn2c(=O)cc(C)c3c(C)nn(C)c32)c1 -10.7%
COc1ccccc1NC(=O)c1sc2nc(C)c(C(=O)Nc3ccc(C)cc3C)c(-c3ccc(C)o3)c2c1N 8.21%
Cc1ccc(-n2ncc3c(N4CCN(C)CC4)ncnc32)cc1C 6.87%
Cc1cc(C)cc(NC(=O)CCc2c(C)nc3c4cccnc4nn3c2C)c1 10.6%
Cc1cccc(NC(=O)Cc2csc(COc3cccc(C)c3)n2)c1 5.51%
CCOc1ccc(-c2cc3nc(C4CCN(C(=O)OC(C)(C)C)CC4)c(C(=O)Nc4ccc(C)cc4C)cn3n2)cc1 3%
CCOC(=O)C1CCCN(S(=O)(=O)c2csc(C(N)=O)c2)C1 (configuration not stated) 4.22%
Cc1cccc(-n2c(SCC(=O)c3ccccc3)nnc2-c2ccc(Br)cc2)c1 -3.43%
CCCNC(=O)N1CCN(S(=O)(=O)c2ccc3c(ccn3C)c2)CC1 -4.08%
CCc1nn2c(=O)c(S(=O)(=O)Nc3cccc(F)c3)c(C)nc2s1 7.59%
CCC(Sc1nc2nccnc2c(=O)n1Cc1ccc(C)cc1)C(=O)NC1CCCCC1 (configuration not stated) 1.53%
COc1cccc(CNC(=O)c2ccc(NC(=O)N3CC(C)Sc4ccccc43)cc2)c1 (configuration not stated) 0.831%
CCC1CN(C(=O)Nc2ccc(C(=O)O)cc2)c2cc(Cl)ccc2O1 (configuration not stated) 0.799%
Cc1ccc2nc(Cl)c3cc(C(=O)NC4CCCCCC4)sc3c2c1 5.93%
O=C(CSc1cn(CC(=O)N2CCCC2)c2ccccc12)Nc1cc(C(F)(F)F)ccc1Cl 9.67%
Cc1cccc(CCNC(=O)C2CCCN(S(=O)(=O)c3ccc4c(c3)oc(=O)n4C)C2)c1 (configuration not stated) 0.308%
CC(C)(C)OC(=O)N1CCC(c2c(C(=O)N3CCN(C(=O)c4ccco4)CC3)cnn2-c2ccccc2)CC1 -5.35%
COc1cc(NC(=O)c2ccc(NC(=O)N3CCSc4ncccc43)cc2)cc(OC)c1 1.15%
COc1ccc(CCNC(=O)c2ccc(CNS(=O)(=O)c3ccccc3)cc2)cc1OC -8.13%
CCCS(=O)(=O)c1nc(S(=O)(=O)c2ccc(C)cc2)c(NCc2ccccc2)s1 0.927%
CN(Cc1ccccc1)C(=O)c1cn(C)c2ccc(S(=O)(=O)N(C)C3CCCCC3)cc2c1=O 20.2%
COc1cc(NC(=O)c2c(C)oc3ncnc(N4CCCCC4)c23)cc(OC)c1 -0.396%
COc1ccc(NC(=O)c2c(C)oc3ccc(O)c(CN4CCN(Cc5ccccc5)CC4)c23)cc1 -3.8%
Cc1cccc(Cn2c(SCc3ccc(C(=O)NC4CCCCC4)cc3)nc3ccncc32)c1 -1.7%
COc1ccc(/C=C(/C#N)c2nc(-c3ccc(Br)cc3)cs2)cc1 -2.27%
Cc1ccc(C(=O)COC(=O)CCC(=O)Nc2ccc(Oc3cc(C)ccc3C(C)C)cc2)cc1 5.92%
CCc1ccc(C2=NN(CCC(=O)NCCc3ccc(Cl)cc3)C(=O)CC2)cc1 -2.05%
Cc1ccc(OC(=O)CSc2nnc(CNC(=O)c3ccccc3)o2)cc1 2.57%
CC(=O)N1CCCc2cc(S(=O)(=O)N3CCCC(C(=O)N4CCN(c5cc(C)ccc5C)CC4)C3)ccc21 (configuration not stated) -21.8%
Cc1ccc2c(c1)-c1c(cnn1CC(=O)Nc1ccccc1C#N)CO2 4.92%
Cc1c(C(=O)NCCN(C)C)sc2nc3n(c(=O)c12)CCC3 34.8%
CCOC(=O)c1nnc2c(-c3ccc(Cl)cc3)c(C)nn2c1C -5.67%
Cc1ccc(CCNC(=O)CCSCc2ccccc2Cl)cc1 0.662%
CCCn1c2ccccc2c2cnn(CC(=O)NC(CCSC)C(=O)OC)c(=O)c21 (configuration not stated) 5.74%
O=C(NCC(c1ccccc1)c1ccccc1)c1nn(-c2ccccc2F)nc1CO -1.37%
CN1CCN(CCC(=O)Nc2ccc(Cl)cc2)CC1 4.7%
CC(C)c1ccc(NC(=O)CCNS(=O)(=O)c2cccc3nsnc23)cc1 28.3%
COc1ccc(OC)c(NS(=O)(=O)c2ccc(Br)s2)c1 -7.77%
O=C(Nc1ncc(SCCN2CCCC2)s1)[C@]1(c2ccc(S(=O)(=O)C3CC3)cc2)C[C@@H]1C1CCCCC1 -4.76%
COC(=O)Nc1nc2ccc(S(=O)c3ccccc3)cc2[nH]1 (configuration not stated) -21.9%
CCOc1ccc(NC(=O)c2oc3ccccc3c2NC(=O)Cc2cccc(C)c2)cc1 -5.14%
O=C(COc1ccc(Cl)cc1)NCCc1csc(-c2cccc(F)c2)n1 3.95%
COc1ccc(NC(=O)c2c(C)oc3ccc(O)c(CN4CCOCC4)c23)cc1 -4.27%
Cc1cccc(NC(=O)CSc2nc(=O)n(Cc3cccnc3)c3c2CCC3)c1 1.27%
Cc1ccc(NC(=O)Cn2c(=O)ccc3cc(S(=O)(=O)N4CCC(C)CC4)ccc32)cc1C 10.6%
CC(=O)c1ccc(NC(=O)CSc2nccn2Cc2ccc3c(c2)OCO3)cc1 2.25%
Cn1ncc(C(=O)N2CCN(c3ccccc3F)CC2)c1C1CCN(C(=O)OC(C)(C)C)CC1 -3.01%
COc1ccc(C2N3CC4(C)CN2CC(c2ccccc2)(C3)C4=O)cc1 (configuration not stated) 6.33%
Cc1ccc(NC(=O)c2nc(-c3ccncc3)no2)c(Cl)c1 0.763%
O=C(COCc1cc(-c2ccco2)on1)Nc1cccc(Cl)c1Cl 1.58%
Cc1ccc(NC(=O)CSc2nc(-c3ccco3)cc(C(F)(F)F)n2)cc1C -15.3%
